Data published in the supplement of paper PMC10369915.
Some of the results follow. Cut-off read from the data, not from the text of the source: active = 3.2 or more and inactive = the rest. The signal is at background level for most entries.

molecular target: SHP2 C-SH2 domain E139D; assay: enrichment score (SH2-bound / input frequency) (ratio); bacterial display of known human phosphotyrosine sites (pTyr-Var adds point mutants) read by sequencing; higher = stronger binding; tyrosines were phosphorylated by kinases first; details: peptide library: pTyr-Var
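Note: displayed peptides selected on beads carrying the immobilized SH2 domain, with library peptides lacking any tyrosine serving as negative controls.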

Enrichment score, inactive:
VRTGIYHGGEP [PIK3CA_Y361] 0.677
VGIMLYGVDSR [PKD1_Y3143] 1.01
LFLALYTGLVR [PIGB_Y402_H407R] 2.33
FDDIAYIRKAL [PIK3CA_Y1021_T1025A] 0.992
PDNKPYIFKVF [PIK3AP1_Y553_E551K] 1.06
TKQLTYEEQYL [PIK3C3_Y310_D314Y] 0.777
RKGIRYLTSGL [PIGA_Y82] 0.453
EKSREYDRLYE [PIK3R1_Y463] 0.598
DKEKWYPLGNS [PIK3C2G_Y1438] 0.881
DFTSRYLNASD [PKHD1_Y828] 0.845
EYDRLYEEYTR [PIK3R1_Y467] 1.18
VRTGIYHGGKP [PIK3CA_Y361_E365K] 1.04
DFTSRYLSASD [PKHD1_Y828_N830S] 0.747
VGGRIYTDDGL [PKLR_Y218_I219T] 0.81
QDLLLYQTHSE [PKHD1_Y255_F253L] 1.07
VVIMLYGVDSR [PKD1_Y3143_G3139V] 1.67
VRTGIYHGREP [PIK3CA_Y361_G364R] 0.9
HVEAVYIDIAD [PITPNA_Y140] 0.789
QDLFLYQTHSE [PKHD1_Y255] 1.05

molecular target: SHP2 C-SH2 domain wild-type; assay: as above; details: peptide library: pTyr-Var

Enrichment score, inactive:
VRTGIYHGGEP [PIK3CA_Y361] 0.685
VGIMLYGVDSR [PKD1_Y3143] 1.2
LFLALYTGLVR [PIGB_Y402_H407R] 2.66
FDDIAYIRKAL [PIK3CA_Y1021_T1025A] 0.695
PDNKPYIFKVF [PIK3AP1_Y553_E551K] 1.03
TKQLTYEEQYL [PIK3C3_Y310_D314Y] 0.647
RKGIRYLTSGL [PIGA_Y82] 0.417
EKSREYDRLYE [PIK3R1_Y463] 0.749
DKEKWYPLGNS [PIK3C2G_Y1438] 0.932
DFTSRYLNASD [PKHD1_Y828] 0.827
EYDRLYEEYTR [PIK3R1_Y467] 1.27
VRTGIYHGGKP [PIK3CA_Y361_E365K] 0.951
DFTSRYLSASD [PKHD1_Y828_N830S] 0.674
VGGRIYTDDGL [PKLR_Y218_I219T] 0.819
QDLLLYQTHSE [PKHD1_Y255_F253L] 1.11
VVIMLYGVDSR [PKD1_Y3143_G3139V] 2
VRTGIYHGREP [PIK3CA_Y361_G364R] 0.814
HVEAVYIDIAD [PITPNA_Y140] 0.675
QDLFLYQTHSE [PKHD1_Y255] 0.931

molecular target: SHP2 N-SH2 domain L43F; assay: as above; details: peptide library: pTyr-Var

Enrichment score, inactive:
VRTGIYHGGEP [PIK3CA_Y361] 0.675
VGIMLYGVDSR [PKD1_Y3143] 1.25
LFLALYTGLVR [PIGB_Y402_H407R] 2.13
FDDIAYIRKAL [PIK3CA_Y1021_T1025A] 0.746
PDNKPYIFKVF [PIK3AP1_Y553_E551K] 0.83
TKQLTYEEQYL [PIK3C3_Y310_D314Y] 0.805
RKGIRYLTSGL [PIGA_Y82] 0.507
EKSREYDRLYE [PIK3R1_Y463] 0.554
DKEKWYPLGNS [PIK3C2G_Y1438] 1.06
DFTSRYLNASD [PKHD1_Y828] 1.09
EYDRLYEEYTR [PIK3R1_Y467] 1.01
VRTGIYHGGKP [PIK3CA_Y361_E365K] 0.972
DFTSRYLSASD [PKHD1_Y828_N830S] 0.735
VGGRIYTDDGL [PKLR_Y218_I219T] 0.724
QDLLLYQTHSE [PKHD1_Y255_F253L] 0.861
VVIMLYGVDSR [PKD1_Y3143_G3139V] 1.44
VRTGIYHGREP [PIK3CA_Y361_G364R] 0.89
HVEAVYIDIAD [PITPNA_Y140] 0.712
QDLFLYQTHSE [PKHD1_Y255] 0.828

molecular target: SHP2 N-SH2 domain T42A; assay: as above; details: peptide library: pTyr-Var

Enrichment score, inactive:
VRTGIYHGGEP [PIK3CA_Y361] 0.622
VGIMLYGVDSR [PKD1_Y3143] 0.917
LFLALYTGLVR [PIGB_Y402_H407R] 2.12
FDDIAYIRKAL [PIK3CA_Y1021_T1025A] 0.719
PDNKPYIFKVF [PIK3AP1_Y553_E551K] 0.981
TKQLTYEEQYL [PIK3C3_Y310_D314Y] 0.641
RKGIRYLTSGL [PIGA_Y82] 0.48
EKSREYDRLYE [PIK3R1_Y463] 0.749
DKEKWYPLGNS [PIK3C2G_Y1438] 0.769
DFTSRYLNASD [PKHD1_Y828] 0.833
EYDRLYEEYTR [PIK3R1_Y467] 0.797
VRTGIYHGGKP [PIK3CA_Y361_E365K] 1.02
DFTSRYLSASD [PKHD1_Y828_N830S] 0.574
VGGRIYTDDGL [PKLR_Y218_I219T] 0.746
QDLLLYQTHSE [PKHD1_Y255_F253L] 0.922
VVIMLYGVDSR [PKD1_Y3143_G3139V] 1.35
VRTGIYHGREP [PIK3CA_Y361_G364R] 0.794
HVEAVYIDIAD [PITPNA_Y140] 0.762
QDLFLYQTHSE [PKHD1_Y255] 0.661

molecular target: SHP2 N-SH2 domain T52S; assay: as above; details: peptide library: pTyr-Var

Enrichment score, inactive:
VRTGIYHGGEP [PIK3CA_Y361] 0.778
VGIMLYGVDSR [PKD1_Y3143] 1.02
LFLALYTGLVR [PIGB_Y402_H407R] 2.55
FDDIAYIRKAL [PIK3CA_Y1021_T1025A] 1.03
PDNKPYIFKVF [PIK3AP1_Y553_E551K] 0.836
TKQLTYEEQYL [PIK3C3_Y310_D314Y] 0.718
RKGIRYLTSGL [PIGA_Y82] 0.5
EKSREYDRLYE [PIK3R1_Y463] 0.563
DKEKWYPLGNS [PIK3C2G_Y1438] 0.949
DFTSRYLNASD [PKHD1_Y828] 0.897
EYDRLYEEYTR [PIK3R1_Y467] 0.995
VRTGIYHGGKP [PIK3CA_Y361_E365K] 1.01
DFTSRYLSASD [PKHD1_Y828_N830S] 0.809
VGGRIYTDDGL [PKLR_Y218_I219T] 0.684
QDLLLYQTHSE [PKHD1_Y255_F253L] 0.979
VVIMLYGVDSR [PKD1_Y3143_G3139V] 1.5
VRTGIYHGREP [PIK3CA_Y361_G364R] 0.919
HVEAVYIDIAD [PITPNA_Y140] 0.847
QDLFLYQTHSE [PKHD1_Y255] 0.946

molecular target: SHP2 N-SH2 domain wild-type; assay: as above; details: peptide library: pTyr-Var

Enrichment score, inactive:
VRTGIYHGGEP [PIK3CA_Y361] 0.741
VGIMLYGVDSR [PKD1_Y3143] 1.35
LFLALYTGLVR [PIGB_Y402_H407R] 2.47
FDDIAYIRKAL [PIK3CA_Y1021_T1025A] 0.81
PDNKPYIFKVF [PIK3AP1_Y553_E551K] 0.857
TKQLTYEEQYL [PIK3C3_Y310_D314Y] 0.737
RKGIRYLTSGL [PIGA_Y82] 0.317
EKSREYDRLYE [PIK3R1_Y463] 0.7
DKEKWYPLGNS [PIK3C2G_Y1438] 1.28
DFTSRYLNASD [PKHD1_Y828] 1.01
EYDRLYEEYTR [PIK3R1_Y467] 1.16
VRTGIYHGGKP [PIK3CA_Y361_E365K] 1.07
DFTSRYLSASD [PKHD1_Y828_N830S] 0.754
VGGRIYTDDGL [PKLR_Y218_I219T] 0.761
QDLLLYQTHSE [PKHD1_Y255_F253L] 1.27
VVIMLYGVDSR [PKD1_Y3143_G3139V] 1.86
VRTGIYHGREP [PIK3CA_Y361_G364R] 0.909
HVEAVYIDIAD [PITPNA_Y140] 0.748
QDLFLYQTHSE [PKHD1_Y255] 0.888
